# PubChem BioAssay AID686978 (National Center for Advancing Translational Sciences (NCATS), 2013)
# Where “and” joins values, the source holds several entries; their conditions need not be identical. Equal values may be shown once. Screen size: about 420,000 compounds; about 64,000 (15%) were called active. The shares of active, inactive and inconclusive entries below differ from those in the screen. Calls come from the whole dose curve; as a rule, active = well fitted inhibition curve with a large enough effect; inconclusive = small, poorly fitted or top-dose-only effect; inactive = flat fitted curve, though single readings scatter. A potency beside an inconclusive call is a rough fit, not a confirmed value.
# Test: qHTS for Inhibitors of human tyrosyl-DNA phosphodiesterase 1 (TDP1): qHTS in cells in absence of CPT; note: nearly all actives have a fitted effect of over 55% in size
# Conditions: DT40 Tdp1-/- hTDP1 cells, no CPT, ATP luminescence, 48 h; activity change, negative = growth inhibition: at 46.2 µM (top of the series) unless noted
# Method in brief: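 Cells were dispensed at 400 per well, compounds added by pin tool, plates incubated ≥48 hr at 37 °C, then CellTiter-Glo added for 30 min at room temperature before luminescence reading. Line: DT40 Tdp1-/- complemented with hTDP1; camptothecin omitted.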
# % is set by controls: 0 for no effect and ±100 for the full control effect; potency is the fitted concentration of half-maximal effect; tags give direction and shape of the fitted curve.
SMILES,Potency,"activity change, negative = growth inhibition"
O=C(NCc1ccc(Cl)cc1)N1CCN(Cc2ccccc2)CC1,"inconclusive: 29.1 µM [inhibitor, single point]",
COc1ccc(-c2cn(Cc3ccc(C(=O)c4ccccc4)cc3)nn2)cc1,active: 1.78 µM and active: 7.31 µM,
CSc1ccc(/C=N/N2CCN(Cc3ccc(C)cc3C)CC2)cc1,"inconclusive: 18.4 µM [inhibitor, single point]",
Cc1ccc([N+](=O)[O-])cc1S(=O)(=O)N1CCN(C)CC1,,inactive: 3.16%
CC(=O)c1c(C)n(C)c2ccc(OC(=O)c3ccc([N+](=O)[O-])cc3)cc12,,inactive: 13.7%
CC1=NNC(=O)C(CC(=O)Nc2ccc(Cl)c(Cl)c2)C1 (centres undefined),,inactive: -26.6%
CCCN(CC1CC1)C(=O)CSc1ncnc2sccc12,,inactive: -26.6%
CCCOC(=O)c1ccc(Oc2c(-c3ccc(OCC)cc3O)n[nH]c2C)cc1,active: 18.4 µM,
Cc1ccc(NC(=O)CC(C(=O)O)c2ccccc2)cc1 (centres undefined),,inactive: -14.2%
O=C(Nc1ccc(F)c(F)c1)C1CCCN(S(=O)(=O)c2cnc[nH]2)C1 (centres undefined),"inconclusive: 25.9 µM [inhibitor, single point]",
Nc1cc(N)cc(C(=O)c2ccccc2)c1,,inactive: 2.2%
Cc1ccc(/C=C/C(=O)c2c(C)cc(C)[nH]c2=O)cc1,active: 11.2 µM,
CN(Cc1ccccc1)S(=O)(=O)c1nnc(NC(=O)c2ccccc2Cl)s1,"inconclusive: 18.4 µM [inhibitor, partial curve]",
CCCC1(c2ccsc2)NC(=O)NC1=O (centres undefined),,inactive: -19.9%
Cc1cccc(-c2nnc(SCc3cc(=O)[nH]c4ccccc34)n2C)c1,,inactive: -18%
NC(=O)c1[nH]cnc1N,inactive,
CCOC(=O)c1c(C)[nH]c(C(=O)CN2C(=O)NC(C)(CC(C)C)C2=O)c1C (centres undefined),"inconclusive: 29.1 µM [inhibitor, partial curve, poor fit]",
CCN(CC)CCNc1nc(SC)nc2sc3c(c12)CCN(C)C3,"inconclusive: 8.2 µM [inhibitor, partial curve]",
O=C(NCc1ccc(Cl)c(Cl)c1)c1cc(C2CCCCN2C(=O)C2CCCCC2)on1 (centres undefined),active: 18.4 µM,
CCc1ccc(NC(=O)CC2C(=O)N(c3cccc(OC)c3)C(=O)N2CCOC)cc1 (centres undefined),,inactive: 12.2%
O=C1C(Sc2cccc(F)c2)=C[C@@]2(O)CC[C@@H](O)[C@]1(Sc1cccc(F)c1)[C@H]2O,"inconclusive: 20.6 µM [inhibitor, single point]",
CC(C)C[C@H]1CN([C@@H](Cc2ccc(O)cc2)CN2CCC[C@@H]2CN2C(=S)NC[C@@H]2Cc2ccccc2)C(=S)N1CCc1ccccc1,active: 6.51 µM,
C/C(=N\NC(=S)NC1CCCCC1)c1ccc(C#N)cc1,"inconclusive: 18.4 µM [inhibitor, single point]",
CCc1ccccc1N(CC(=O)N1CCN(c2ccc(F)cc2)CC1)S(C)(=O)=O,active: 23.1 µM,
CCn1cc(C(=O)NCCC(C)C)c(=O)c2cc(F)c(N3CCN(C)CC3)cc21,"inconclusive: 29.1 µM [inhibitor, single point]",

SMILES,Potency,"activity change, negative = growth inhibition"
CC1(C(=O)Nc2ccc3nc[nH]c3c2)CCN1C(=O)c1ccccc1CCc1ccccc1 (centres undefined),"inconclusive: 18.4 µM [inhibitor, single point]",
O=C(NC1CC1)C1=C[C@@H](c2c[nH]c3ccccc23)C[C@@H](OCc2ccc(CO)cc2)O1,,inactive: -4.53%
Cc1ccc(C)c(OCCC(=O)OCC(=O)Nc2cccnc2Cl)c1,"inconclusive: 23.1 µM [inhibitor, single point]",
N#C/C(=C\N1CCN(Cc2ccc3c(c2)OCO3)CC1)c1nc2ccccc2s1,"inconclusive: 29.1 µM [inhibitor, single point]",
Cc1c(O)ccc(C(=O)CN2CCN(Cc3ccc4c(c3)OCO4)CC2)c1O,"inconclusive: 29.1 µM [inhibitor, single point]",
O=C1/C(=C/c2cccnc2)SC(=S)N1C1CCS(=O)(=O)C1 (centres undefined),active: 9.2 µM,
c1ccc(Cn2nnnc2CN2CCOCC2)cc1,,inactive: 0.577%
COCCNC(=O)c1ccc(-c2cn[nH]c2)c2ccoc12,,inactive: -2.54%
Cc1ccc(NC(=O)c2cc3c(=O)[nH]c4ccccc4c3n2C)cc1F,,inactive: -26.1%
Cc1csc(NC(=O)c2ccc(Cl)nc2)n1,,inactive: 6.3%
CSc1nsc(NN)n1,,inactive: -5.13%
COc1ccc(-c2cc(C(C)=O)c(C)n2CCC(=O)NCc2ccc(F)cc2)cc1,"inconclusive: 29.1 µM [inhibitor, single point]",
CCOC(=O)c1oc2ccccc2c1NC(=O)Cc1cccs1,,inactive: -14.8%
CCCCn1c(CNC(=O)c2ccc(OC)cc2)nnc1SCC(=O)Nc1ccccc1,,inactive: -17.3%
O=C1C(Cl)=C(NCCN2CCCCC2)C(=O)c2ccccc21,"inconclusive: 4.61 µM [inhibitor, full curve, poor fit]",
CCOC(=O)c1sc(NC(=O)CS(=O)(=O)c2ccc(C)cc2)nc1C,"inconclusive: 20.6 µM [inhibitor, partial curve]",
Cc1ccc(CNC(=O)CCC(=O)N2CC(C)Sc3ccccc32)cc1 (centres undefined),"inactive and inconclusive: 16.4 µM [inhibitor, single point]",
COc1ccccc1NC(=O)Nc1nc(CC(=O)N2CCN(c3ccccc3)CC2)cs1,"inconclusive: 29.1 µM [inhibitor, single point]",
Cc1ccccc1OCC(=O)NNC(=O)CSc1nc(N)cc(N)n1,"inconclusive: 23.1 µM [inhibitor, single point]",
Cc1ccc(C)c(OCc2cc(C(=O)N3CCN(C4CCCCC4)CC3)no2)c1,"inconclusive: 23.1 µM [inhibitor, single point]",
COc1ccc(CN2CCCC(C(=O)Nc3cccc(-n4cnnn4)c3)C2)c(C)c1C (centres undefined),"inconclusive: 29.1 µM [inhibitor, single point]",
COC(=O)CNC(c1ccccc1)c1cc(Br)ccc1NC(=O)CCN1CCOCC1 (centres undefined),active: 1.64 µM,
CC[C@]12CCCN3CCc4c(n(c5ccccc45)C(=O)C1)[C@@H]32,active: 9.03 µM and active: 6.51 µM,
CCNc1nc(NC(C)C)nc(NC(C)(C)C)n1,"inconclusive: 20.6 µM [inhibitor, partial curve]",
